In assay [1] the target is T1, Myc-tagged hGBP1 mutant K51A (human) (UniProt P32455).
T1 sequence: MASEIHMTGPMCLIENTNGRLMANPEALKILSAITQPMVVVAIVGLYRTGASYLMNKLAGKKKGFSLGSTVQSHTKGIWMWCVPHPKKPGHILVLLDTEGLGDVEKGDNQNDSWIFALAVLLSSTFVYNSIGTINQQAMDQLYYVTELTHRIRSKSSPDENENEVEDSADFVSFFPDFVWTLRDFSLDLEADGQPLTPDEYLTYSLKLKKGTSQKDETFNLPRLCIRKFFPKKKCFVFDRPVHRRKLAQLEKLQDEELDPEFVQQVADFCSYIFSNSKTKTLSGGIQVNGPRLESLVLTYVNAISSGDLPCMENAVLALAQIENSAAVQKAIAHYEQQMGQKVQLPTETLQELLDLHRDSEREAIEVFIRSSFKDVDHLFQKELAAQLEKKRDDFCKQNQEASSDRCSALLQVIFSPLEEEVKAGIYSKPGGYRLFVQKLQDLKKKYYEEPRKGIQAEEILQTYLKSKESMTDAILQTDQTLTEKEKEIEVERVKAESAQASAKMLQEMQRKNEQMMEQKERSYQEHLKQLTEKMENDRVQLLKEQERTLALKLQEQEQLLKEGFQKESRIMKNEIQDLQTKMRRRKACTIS
The assay is described as follows: co-IP.

Chains of the proteins cited; added tags and fusions are not shown.
UniProt P03496: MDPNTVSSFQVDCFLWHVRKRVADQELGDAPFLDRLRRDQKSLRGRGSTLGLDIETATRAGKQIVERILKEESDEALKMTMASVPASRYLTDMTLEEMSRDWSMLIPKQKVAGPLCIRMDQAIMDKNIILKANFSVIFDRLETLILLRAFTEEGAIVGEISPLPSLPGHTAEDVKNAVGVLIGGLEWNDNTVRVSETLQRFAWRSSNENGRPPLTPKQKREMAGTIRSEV

Assay [2] concerns the target T2, hGBP1 mutant K51A fused to the N-terminal fragment of venus fluorescent protein (human) (UniProt P32455).
T2 sequence: T1 sequence
The assay is described as follows: split reporter.

Assay [3] has as its target Flag-tagged wild-type NS1 (nonstructural protein 1) of influenza A virus PR8 (influenza A virus A/Puerto-Rico/8/34 (H1N1; PR8)) (UniProt P03496). The assay is described as follows: co-IP.

No constants are given. Whether binding was seen depends on the method and setting. Binding seen in cells or lysates may run through a third protein. Tags and fused reporters may be left off the sequences shown.

Turning to “Flag-tagged wild-type NS1 (nonstructural protein 1) of influenza A virus PR8 (from UniProt P03496 1-230)”, in assay [1], the binding result is recorded as “no binding”.
Consider “NS1 fused to the C-terminal fragment of venus fluorescent protein (from UniProt P03496 1-230)”, for which the binding result in assay [2] was “no binding”.

B1: Myc-tagged hGBP1 mutant K51A (protein, UniProt P32455 1-592)
chain: T1 sequence
Take B1: the binding result in assay [3] is on record as “no binding”.

The values above are taken from paper PMC3566120.
